Whole data set: some 3,600 compounds, median “viability index relative to DMSO control” near 0.81, cut for the lowest 2% near 0.13. This is one part of the list.
These compounds were tested on Plasmodium falciparum NF54 stage V gametocytes (assay: viability index relative to DMSO control (fraction); higher = less gametocyte killing). Conditions: 1.25 µM, incubation time: 72 h.
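Note: 384-well serum-free SaLSSA: MitoTracker Red CMXRos staining with saponin lysis, high-content imaging, treated-well particle count divided by plate-mean count of DMSO wells.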

| Structure (SMILES) | viability index |
| --- | --- |
| O=C(Nc1ccc(C(F)(F)F)cc1)c1ccc(NCCCN2CCCCCC2)c([N+](=O)[O-])c1 | 0.917 |
| CCC(=O)NCc1nc2ccccc2n1Cc1ccc(C)cc1 | 0.956 |
| CCOC(=O)C1=C(N)n2c(sc(=Cc3cccnc3)c2=O)=C(C(=O)OC)C1c1cccnc1 (stereo not given) | 1.29 |
| Cc1ccccc1Nc1nc(NCc2ccco2)c2ccccc2n1 | 0.601 |
| COc1cc(OC)cc(C(=O)N2CCC(C(=O)Nc3cccc4ccccc34)CC2)c1 | 0.942 |
| Cn1ccnc1C1CCCCN1C(=O)c1cc(COc2ccc(F)cc2Cl)on1 (stereo not given) | 0.962 |
| COc1ccccc1Nc1nc(NCC2CCCO2)c2ccccc2n1 (stereo not given) | 0.62 |
| C#CC[N+]1(CC#Cc2cccc3ccccc23)CCCCC1 | 0.864 |
| CC1(C)C2CCC1(C)C(NCc1ccccc1O)C2 (stereo not given) | 0.479 |
| CC1=C(CC(=O)c2ccccc2)C(=O)c2ccccc2C1=O | 0.644 |
| O=C1CN(C(=O)CCC2CCCCC2)C(c2ccccc2)c2cc(F)ccc2N1 (stereo not given) | 1.12 |
| CCOC(=O)C1=C(C)NC2=C(C(=O)CC(C)(C)C2)C1c1ccc(Cl)cc1Cl (stereo not given) | 0.826 |
| CCN(CC)CCNC(=O)C1c2ccccc2C(=O)N(Cc2ccc(F)cc2)C1c1ccc(OC)cc1 (stereo not given) | 0.791 |
| CCOC(=O)c1cc(S(=O)(=O)NCc2ccc(F)cc2)n[nH]1 | 1.19 |
| O=C(O)CCNc1ccccc1[N+](=O)[O-] | 0.971 |
| O=[N+]([O-])c1cc(NC2OC(CO)C(OC3OC(CO)C(O)C(O)C3O)C(O)C2O)ccc1Cl (stereo not given) | 0.692 |
| CCCCNC(=O)C(CC)Sc1nnc(-c2ccc(C)cc2)c(-c2ccc(C)cc2)n1 (stereo not given) | 0.884 |
| CSc1nc2sc3c(c2c(=O)n1-c1ccccc1)CCN(CCc1ccccc1)C3 | 0.646 |
| CCOC(=O)COc1ccc(C2NC(=S)NC(C)=C2C(C)=O)cc1OC (stereo not given) | 0.885 |
| CCCCN(C(=O)c1ccccc1C)c1nc(-c2cc(OC)ccc2OC)cs1 | 0.624 |
| CCN(CC)c1ccc2cc(C(C)=NNC(N)=S)c(=O)oc2c1 | 0.656 |
| CCn1c(SCC(=O)N(c2ccccc2)c2ccccc2)nc2sc3c(c2c1=O)CCN(C)C3 | 0.946 |
| CCN(CC)CCNc1nc(C=Cc2ccc(Cl)cc2)nc2cc3ccccc3cc12 | 0.453 |
| COc1cccc(NCC(O)Cn2c3ccc(Cl)cc3c3cc(Cl)ccc32)c1 (stereo not given) | 0.898 |
| Cc1ccc(C(=O)Nc2ccc(-c3nc4cc5ccccc5cc4[nH]3)cc2)cc1[N+](=O)[O-] | 0.735 |

Source: the supplement of paper PMC4723716
